Results: the supplement of paper PMC11417369
This is one part of the list.

Test system: PF3D7_0420300 AP2 domain 1 (GST-tagged)
Test: gcPBM binding intensity (ln(normalized median fluorescence intensity)); higher = stronger DNA binding
How it was run: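 Alexa488 anti-GST antibody, scanned at 488 nm, detected GST-tagged P. falciparum DNA-binding domains that had been expressed in E. coli and incubated for 1 h on an Agilent 4 × 180k array. The array carried primer-extended double-stranded 36-bp intergenic genomic probes and negative controls. Binding intensity is the highest Masliner-normalised natural-log median intensity across replicate spots of either orientation of each probe.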

| Sequence | gcPBM binding intensity (ln) |
| --- | --- |
| TGTGTAAACATATTCACACACATAAATTCGCATATA [CACACA_site6961] | 9.54 |
| ATATGAACAAAATAAATCTCTTCAAAAATAATGTTC [GTGCAC_negctrl_site2] | 9.17 |
| TAAATGATTGCATAATGTACATATAATTTTTTTTTT [XGTACX_site1988] | 9.03 |
| TATATATATTTATGCTGTACCAAATAAGAATAGAAA [XGTACX_site7731] | 9.14 |
| ACAAAATATACAAAATGTACAAAATTTACAAAATAT [XGTACX_site6466] | 9.43 |
| AGCACAAGCACAAGCACACATTTATATATAAATACA [CACACA_site4642] | 9.42 |
| AAAGTTATAATACGTACACACCTTATCTTTTTGGCT [CACACA_site6267] | 9.47 |
| TTTATGGGTATGTTTACACACATAAAAAAATATATG [CACACA_site5646] | 9.34 |
| ATATATATGAAAATATGTACATATATATATATATAA [XGTACX_site7550] | 9.19 |
| ATATAAGTATTTTGAATGCACTTTCTTTTTTTTTTT | 9.28 |
| ACTGAAAAAAGAAATACACACATTCTGGATCATATA [CACACA_site3860] | 9.57 |
| TTATAAAATAATTAATGTACGTTTATGTGTATCGAA [XGTACX_site6117] | 9.24 |
| TATTATCTCTTATGAACACACATTTTTATTTTCAAA [CACACA_site3353] | 9.31 |
| ATATCGTATATGAGTGGTACTAATATGTAAAAAAAA [XGTACX_site7830] | 9.13 |
| ATTTTGTTCGAAAGGTGTACATATACAAAAATTATG [XGTACX_site957] | 9.25 |
| TAATAATAAAAATAAACACACATATAGATGTATATA [CACACA_site7360] | 9.46 |
| TCATTATTATTCCTCACACATATATATATATATATT [CACACA_site4375] | 9.49 |
| AGCACACCCACAAAAACACACACAAAGGTGTTCTTA [CACACA_site8355] | 9.6 |
| CACTTTTCATATATGACACACAAAAAATTAATAAAA [CACACA_site3639] | 9.17 |
| GCATGTATAATGGTAGTGCATATAATAATATAATAA [GTGCAC_site9548] | 9.2 |
| ATTAACACTGAAAAATGTACATATATAAATATAAGC [XGTACX_site8222] | 9.52 |
| AATATTAAAAACAAAACACACAAAAAAAAATAAACT [CACACA_site6470] | 10.1 |
| AACGATATCTGTACTACACACATTATGTCATCCTAT [CACACA_site5374] | 9.81 |

| Sequence | gcPBM binding intensity (ln) |
| --- | --- |
| TAAAATAATACAAAATGTACAAAATTTACAAAATGT [XGTACX_site3541] | 9.28 |
| ATGTAAATTAAACATGGTACACATTATACAAAATTA [XGTACX_site5675] | 9.41 |
| AATATAGAACAATGTTGTACATATAATAATCTTATA [XGTACX_site4671] | 9.15 |
| TTCATATATTATTATGCATGTTCATAAATTATCTAA [TGCATGCA_site896] | 9.11 |
| TTCATATAATTATATACATGCATAAATTCTAAGTAA [TGCATGCA_site622] | 9.01 |
| ATTTTATAAACAAATGAACACACAAACATATATATA [CACACA_site9036] | 9.74 |
| TACATACATAAACACACACACACATATATATATATA [CACACA_site8953] | 10.1 |
| ATTTGTGTATATTAGAGTACATAAAATTAGAGGAAC [XGTACX_site1654] | 9.54 |
| ATCAAAAGAAAACACACACACATACATATATATATA [CACACA_site3795] | 10.1 |
| ACCCATTCAAATTTCGCACACACATACAAAAAAAAA [CACACA_site3094] | 9.76 |
| CATTAATGACATGATTGTACATAAGCTTTTTTACAT [XGTACX_site1888] | 9.28 |
| AAAAGGAAAATACTAGCACACAATATATAATAAACA [CACACA_site285] | 9.62 |
| ATATTGTAAGTAAAATGTAATAAATATAATAAAATA [CACACA_negctrl_site697] | 9.34 |
| TTAGTATATACATTTGCACACATTATTTTTTAACAT [CACACA_site2618] | 9.68 |
| TCCTTGCATTTTAAAACACACAAAAATTAATTGTTA [CACACA_site7152] | 9.19 |
| TAAAAATGTGGACACACACACATATATATATTTAAT [CACACA_site4941] | 9.79 |
| TTTCTAATTATTTCCCTTCAAATATATTAATATCGT [CACACA_negctrl_site429] | 9.13 |
| ATATATATTATTATATGTACATATAAATATATTAAT [XGTACX_site5270] | 9.09 |
| AAAAGCTATAAAAATCGGTAATTTATAACAGGAATT [CACACA_negctrl_site469] | 9.33 |
| AATGTTAAGGAGGGGAGTACATAAAATTCTCTCTCC [XGTACX_site1990] | 9.03 |
| ATTATGTACTATTATACACACGTTTAATTGTAAATT [CACACA_site4278] | 9.45 |
| ATTATACACGCGCGCACACACAACAAAAAAAAAAAA [CACACA_site7630] | 9.69 |
| ATAATAATAAAGTGAACACACACATATAATATATAT [CACACA_site9378] | 9.73 |

| Sequence | gcPBM binding intensity (ln) |
| --- | --- |
| TGGTAACAGCATAGAAAATGGACAAACGAAATATAA [GTGCAC_negctrl_site537] | 9.47 |
| TAAATAAACAAATTAACACACAGAATTTTTTTTTTC [CACACA_site1674] | 9.44 |
| TATTTAAAAATAAAATGTACATATTATTATGCATTA [XGTACX_site1303] | 8.95 |
| TTAATATTGTTATAGCGTACAAATAAACATATTAAA [XGTACX_site8153] | 9.14 |
| TTACATATTTATGATTGTACACATTTATAAACAATA [XGTACX_site2190] | 9.11 |
| TGATTCTAACTTATGGTGCAACATTATGGACACCGT | 8.99 |
| AAAAGTCTCTTTTTAGTGCACATTTTATTTAAATAT | 9.17 |
| CAGATAAGGTGAAGCTGTACAAAAATGTTTTATAAC [XGTACX_site6783] | 9.28 |
| TCTAATTATCACATTGCACACACATTTCCTTTTACA [CACACA_site9140] | 9.98 |
| TTATACTGTATAGTCGCACACAAAAATATAAAATAT [CACACA_site3869] | 9.47 |
| TAATTAATTTATGTAACACACATTGTTGATTCAATA [CACACA_site1098] | 9.25 |
| ATATTAAGAATGTATACATGCATATATATATAGTAC [TGCATGCA_site219] | 9.4 |
| TTCGTTAAAAATAAATGTACATAAATAAACCTTATT [XGTACX_site621] | 9.09 |
| ATTTTAATAAACACTTACATGTTTTCCAAATTGTAT [CACACA_negctrl_site1807] | 9.12 |
| TATTAATAAATATGTTTACACACGAAAATACATTTT [CACACA_site1012] | 9.41 |
| AAAGATTTAGAAAATGAACACACGAGCACCCACCGA [CACACA_site1017] | 9.7 |
| GAAAGAGAGATATATACACACATATTTATATTTTTA [CACACA_site7057] | 9.47 |
| TTATTATCTCTTGTCATTATTATATACTAAGAAGTA [CACACA_negctrl_site410] | 9.12 |
| AATATGAAATATATTACACACATTTATATGTTGAAA [CACACA_site1427] | 9.46 |
| AATACACCCAGACACACACACAAAAAAAAAAAAAAA [CACACA_site513] | 9.51 |
| TTTGAATCCTTATATACACACATTATGTAATATTAT [CACACA_site561] | 9.5 |
| AAAAGAGAAATGGGCACACACACACCGATTATATAT [CACACA_site4942] | 10.2 |
| ATATATATATTAAATACACACATTTTTGATTAGGTT [CACACA_site3119] | 9.44 |

| Sequence | gcPBM binding intensity (ln) |
| --- | --- |
| ATTACATTTTTAATGCGTACTAAAAATGTATATAAG [XGTACX_site6384] | 8.96 |
| AGAATTACTTAAAAAAGTACATAAAATTATTTAAAA [XGTACX_site2205] | 9.04 |
| AATATAAAAATGTTTACACACACACCCAAATATATT [CACACA_site2511] | 10.1 |
| TGTATAAATAAATGCGTACACACTAATAAAAAAAAA [CACACA_site858] | 9.45 |
| CAACTTTTTGAAAATTGTACATGACATATATATATA [XGTACX_site260] | 9 |
| TTATGTAAATAATTTTGTACTTAAATTATTATATAA [XGTACX_site1491] | 8.87 |
| AAAAAAAATATGATGAGTACACAATAATACATGCAA [XGTACX_site6999] | 9.54 |
| AATATCTAAAATGTGTGTACATAATATTTTTAATAT [XGTACX_site3831] | 9.45 |
| GTGGTTATATATTAAGTGCATATTATAATTTTAAAC | 9.23 |
| ATAGATAAAAAATTATTTATTTAGAATTTTTATGTA [CACACA_negctrl_site400] | 8.76 |
| TTTATTCCAGTATTCACACACGAATAACCACATAAC [CACACA_site5104] | 9.57 |
| CTATACATATTATATAGTACTTTATTATTATGACTA [XGTACX_site1382] | 9.14 |
| ATAATTCTTTATTATAGTACACAAACTTTCAAAACA [XGTACX_site3597] | 9.06 |
| TATATAAGAGGAAAAAGTACAGAAAAACAAAGAGAA [XGTACX_site2926] | 9.83 |
| TTTATATCTTATTATAGGAAAATGAATATTTTCTCT [TGCATGCA_negctrl_site478] | 8.96 |
| ACAAAACATATATTCTGTACATATATAATGGTGACT [XGTACX_site6796] | 9.4 |
| AAAAAAGAGGGATACACACAAACATATATATATATA [CACACA_site2243] | 9.47 |
| AAGAAAATATAAATATGTACTTAATAATTTATTTAT [XGTACX_site8100] | 9.03 |
| AGGATACACGGACACACACACATATATATATATATA [CACACA_site4654] | 9.9 |
| TATTAAAATAACATACGTACATAAGTATATAAAAAA [XGTACX_site1769] | 9.3 |
